# Reference: paper PMC12820563
# Some of the results follow. The list includes weakly bound sequences.
# Molecular target: T1, MBP-FoxP3dN (UniProt Q99JB6)
# T1 sequence: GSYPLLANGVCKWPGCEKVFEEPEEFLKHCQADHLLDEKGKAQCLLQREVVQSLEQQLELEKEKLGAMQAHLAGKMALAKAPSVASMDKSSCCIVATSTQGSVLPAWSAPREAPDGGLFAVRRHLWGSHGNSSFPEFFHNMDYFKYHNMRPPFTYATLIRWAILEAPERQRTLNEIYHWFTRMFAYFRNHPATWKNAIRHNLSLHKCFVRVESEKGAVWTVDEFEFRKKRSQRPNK
# Test: PD-seq (MBP pull-down with sequencing)
# Conditions: 20 mM Tris-HCl pH 7.5, 100 mM NaCl, 1.5 mM MgCl2, 0.4 uM protein, 0.1 uM dsDNA library, 30 min, room temperature, amylose pull-down; high values mean tight binding; double strand, one strand shown
row,Sequence,binding signal (RPM ratio (pull-down/input))
1,GATGATTGTTCTCCCAGCTGATGAATTGGGATGTTCGAGTAAACAAATTTTCCTAATCTTTCTGTTCAAGCGCCATCTAC,0.774
2,GATGATTGTTCTCCCAGCTGATGAATTGCCTACATCGAGTAAACAAATTTTCCTAATCTTTCTGTTCAAGCGCCATCTAC,0.721
3,GATGATTGTTCTCCCAGCTGATGAATTAAAGTGCTCGAGTAAACAAATTTTCCTAATCTTTCTGTTCAAGCGCCATCTAC,0.358
4,GATGATTGTTCTCCCAGCTGATGAATTAAGGCGTTCGAGTAAACAAATTTTCCTAATCTTTCTGTTCAAGCGCCATCTAC,1.44
5,GATGATTGTTCTCCCAGCTGATGAATTACTTCATTCGAGTAAACAAATTTTCCTAATCTTTCTGTTCAAGCGCCATCTAC,0.35
6,GATGATTGTTCTCCCAGCTGATGAATTATCAGTATCGAGTAAACAAATTTTCCTAATCTTTCTGTTCAAGCGCCATCTAC,0.498
7,GATGATTGTTCTCCCAGCTGATGAATTGGTACTCTCGAGTAAACAAATTTTCCTAATCTTTCTGTTCAAGCGCCATCTAC,0.554
8,GATGATTGTTCTCCCAGCTGATGAATTAGAGACTTCGAGTAAACAAATTTTCCTAATCTTTCTGTTCAAGCGCCATCTAC,0.502
9,GATGATTGTTCTCCCAGCTGATGAATTTCTAAGGTCGAGTAAACAAATTTTCCTAATCTTTCTGTTCAAGCGCCATCTAC,0.189
10,GATGATTGTTCTCCCAGCTGATGAATTAACGATGTCGAGTAAACAAATTTTCCTAATCTTTCTGTTCAAGCGCCATCTAC,0.4
11,GATGATTGTTCTCCCAGCTGATGAATTCACGCGTTCGAGTAAACAAATTTTCCTAATCTTTCTGTTCAAGCGCCATCTAC,1.46
12,GATGATTGTTCTCCCAGCTGATGAATTGTTAGGCTCGAGTAAACAAATTTTCCTAATCTTTCTGTTCAAGCGCCATCTAC,0.88
13,GATGATTGTTCTCCCAGCTGATGAATTACGAACCTCGAGTAAACAAATTTTCCTAATCTTTCTGTTCAAGCGCCATCTAC,0.325
14,GATGATTGTTCTCCCAGCTGATGAATTTCTTGACTCGAGTAAACAAATTTTCCTAATCTTTCTGTTCAAGCGCCATCTAC,0.549
15,GATGATTGTTCTCCCAGCTGATGAATTCTACTAATCGAGTAAACAAATTTTCCTAATCTTTCTGTTCAAGCGCCATCTAC,0.28
16,GATGATTGTTCTCCCAGCTGATGAATTTCCAGAATCGAGTAAACAAATTTTCCTAATCTTTCTGTTCAAGCGCCATCTAC,0.144
17,GATGATTGTTCTCCCAGCTGATGAATTCTACACTTCGAGTAAACAAATTTTCCTAATCTTTCTGTTCAAGCGCCATCTAC,0.354
18,GATGATTGTTCTCCCAGCTGATGAATTACACCGATCGAGTAAACAAATTTTCCTAATCTTTCTGTTCAAGCGCCATCTAC,0.458
19,GATGATTGTTCTCCCAGCTGATGAATTTAAAGCGTCGAGTAAACAAATTTTCCTAATCTTTCTGTTCAAGCGCCATCTAC,0.538
20,GATGATTGTTCTCCCAGCTGATGAATTACTGCGATCGAGTAAACAAATTTTCCTAATCTTTCTGTTCAAGCGCCATCTAC,0.586

row,Sequence,binding signal (RPM ratio (pull-down/input))
1,GATGATTGTTCTCCCAGCTGATGAATTTCTCGCATCGAGTAAACAAATTTTCCTAATCTTTCTGTTCAAGCGCCATCTAC,0.861
2,GATGATTGTTCTCCCAGCTGATGAATTGGCGACCTCGAGTAAACAAATTTTCCTAATCTTTCTGTTCAAGCGCCATCTAC,0.465
3,GATGATTGTTCTCCCAGCTGATGAATTACCTAGGTCGAGTAAACAAATTTTCCTAATCTTTCTGTTCAAGCGCCATCTAC,0.184
4,GATGATTGTTCTCCCAGCTGATGAATTTCTAGCCTCGAGTAAACAAATTTTCCTAATCTTTCTGTTCAAGCGCCATCTAC,0.347
5,GATGATTGTTCTCCCAGCTGATGAATTCTAGTGCTCGAGTAAACAAATTTTCCTAATCTTTCTGTTCAAGCGCCATCTAC,0.438
6,GATGATTGTTCTCCCAGCTGATGAATTCAGAGCCTCGAGTAAACAAATTTTCCTAATCTTTCTGTTCAAGCGCCATCTAC,0.42
7,GATGATTGTTCTCCCAGCTGATGAATTAATCTGCTCGAGTAAACAAATTTTCCTAATCTTTCTGTTCAAGCGCCATCTAC,0.34
8,GATGATTGTTCTCCCAGCTGATGAATTAAGCGTGTCGAGTAAACAAATTTTCCTAATCTTTCTGTTCAAGCGCCATCTAC,3.59
9,GATGATTGTTCTCCCAGCTGATGAATTGTGTATTTCGAGTAAACAAATTTTCCTAATCTTTCTGTTCAAGCGCCATCTAC,5.82
10,GATGATTGTTCTCCCAGCTGATGAATTCGGGGCGTCGAGTAAACAAATTTTCCTAATCTTTCTGTTCAAGCGCCATCTAC,0.51
11,GATGATTGTTCTCCCAGCTGATGAATTCCTGCCCTCGAGTAAACAAATTTTCCTAATCTTTCTGTTCAAGCGCCATCTAC,0.321
12,GATGATTGTTCTCCCAGCTGATGAATTGGCTGTATCGAGTAAACAAATTTTCCTAATCTTTCTGTTCAAGCGCCATCTAC,0.902
13,GATGATTGTTCTCCCAGCTGATGAATTTTCAAGCTCGAGTAAACAAATTTTCCTAATCTTTCTGTTCAAGCGCCATCTAC,0.223
14,GATGATTGTTCTCCCAGCTGATGAATTCATGCCGTCGAGTAAACAAATTTTCCTAATCTTTCTGTTCAAGCGCCATCTAC,0.721
15,GATGATTGTTCTCCCAGCTGATGAATTCGTTAAATCGAGTAAACAAATTTTCCTAATCTTTCTGTTCAAGCGCCATCTAC,0.213
16,GATGATTGTTCTCCCAGCTGATGAATTCAGTCTTTCGAGTAAACAAATTTTCCTAATCTTTCTGTTCAAGCGCCATCTAC,0.561
17,GATGATTGTTCTCCCAGCTGATGAATTGAGCTGCTCGAGTAAACAAATTTTCCTAATCTTTCTGTTCAAGCGCCATCTAC,0.424
18,GATGATTGTTCTCCCAGCTGATGAATTTATTCGTTCGAGTAAACAAATTTTCCTAATCTTTCTGTTCAAGCGCCATCTAC,1.02
19,GATGATTGTTCTCCCAGCTGATGAATTATCTTGGTCGAGTAAACAAATTTTCCTAATCTTTCTGTTCAAGCGCCATCTAC,0.323
20,GATGATTGTTCTCCCAGCTGATGAATTCCATATCTCGAGTAAACAAATTTTCCTAATCTTTCTGTTCAAGCGCCATCTAC,0.632
